# Reference: PubChem BioAssay AID2147 (National Center for Advancing Translational Sciences (NCATS), 2009)
# Out of some 230,000 compounds screened, about 3,600 (1.6%) were called active. Inconclusive means that the source gave no clear call. Such entries were picked first, then a sample of the others. The call rests on the fitted dose curve; in most records, active means well fitted inhibition curve with a large enough effect (not every such curve was filed as active); inconclusive means small, poorly fitted or top-dose-only effect, or another doubt; inactive means no such curve, though single readings can be large or run the other way. A potency beside an inconclusive call is a rough fit, not a confirmed value.
# Molecular target: Lysine-specific demethylase 4E (Homo sapiens) (UniProt B2RXH2)
# UniProt B2RXH2, sequence (B2RXH2 whole entry, looked up, the tested form may be a part): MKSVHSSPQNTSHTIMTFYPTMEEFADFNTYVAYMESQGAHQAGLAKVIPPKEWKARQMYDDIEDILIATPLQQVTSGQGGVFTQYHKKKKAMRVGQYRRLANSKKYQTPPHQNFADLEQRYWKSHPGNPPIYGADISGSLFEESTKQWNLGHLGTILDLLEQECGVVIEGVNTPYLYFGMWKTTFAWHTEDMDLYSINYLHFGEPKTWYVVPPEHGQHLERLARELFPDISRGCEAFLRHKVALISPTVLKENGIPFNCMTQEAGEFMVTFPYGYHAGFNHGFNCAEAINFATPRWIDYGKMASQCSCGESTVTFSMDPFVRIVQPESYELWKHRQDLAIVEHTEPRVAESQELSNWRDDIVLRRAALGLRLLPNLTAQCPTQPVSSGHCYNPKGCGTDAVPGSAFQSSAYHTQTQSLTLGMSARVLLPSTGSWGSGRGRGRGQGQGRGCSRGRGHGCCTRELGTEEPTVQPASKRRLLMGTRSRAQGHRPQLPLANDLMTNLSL
# Test: qHTS Assay for Inhibitors of Human Jumonji Domain Containing 2E (JMJD2E)
# Conditions: JMJD2E catalytic domain, FDH-coupled NADH fluorescence (FDH is formaldehyde dehydrogenase); series mostly up to 57.1 µM; activity change, negative = inhibition: at the top concentration
# Further: nearly all actives have a fitted effect of over 50% in size.
# Potency means the concentration at half of the fitted maximal effect; tags describe the fitted curve by direction and shape.
# 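Wherever activity change, negative = inhibition is given: 0% = wells with enzyme and -100% = buffer wells without enzyme.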
Compound,"activity change, negative = inhibition",Potency
CCCn1c(-c2ccc(F)cc2)nc2c(NCCN3CCSCC3)nc(C)nc21,inactive: -12.1%,–
C/C(=N\Nc1cccc2cccnc12)c1ccccn1,–,"inconclusive: 39.8 µM [inhibitor, single point]"
FC(F)(F)c1cccnc1-n1cncn1,inactive: -3.84%,–
Cc1[nH]c2ccccc2c1C(O)CN1CCN(c2cccc(C(F)(F)F)c2)CC1 (stereo not given),–,"inconclusive: 0.708 µM [inhibitor, full curve]"
COc1cc(/C=N/NC(=O)c2ccccn2)cc2c1OCO2,inactive: -0.26%,–
COC(=O)CC1=C(C(=O)OC)C(c2ccc3c(c2)OCO3)C(C#N)=C(N)O1 (stereo not given),–,"inconclusive: 14.1 µM [inhibitor, partial curve]"
O=C(/C=C/c1ccc(O)c(O)c1)O[C@H]1C[C@@](O)(C(=O)O)CC(O)C1O (stereo not given in full),–,active: 15.8 µM
O=C1C=C(NCc2ccc(Cl)cc2)CC(c2ccco2)C1 (stereo not given),inactive: -4.53%,–
COc1ccc(-c2nc3nc(N)nn3cc2C)cc1F,–,"inconclusive: 28.2 µM [inhibitor, partial curve]"
COc1cccc(/C=N/c2oc(-c3ccccc3)cc2C#N)c1O,–,"inconclusive: 31.6 µM [inhibitor, single point]"
O=C(/C=C/c1ccc2c(c1)OCO2)Nc1nc(-c2ccc(F)cc2)cs1,–,"inconclusive: 28.2 µM [inhibitor, single point]"
CCO/C=C1/C(=O)N(CC)c2ccccc21,–,"inconclusive: 28.2 µM [inhibitor, partial curve]"
COc1ccc(N2C(=S)NC3CS(=O)(=O)CC32)cc1 (stereo not given),inactive: 22.3%,–
O=c1c2ccccc2nc(/C=C/c2ccc(O)cc2)n1CCc1ccccc1,–,"inconclusive: 35.5 µM [inhibitor, single point]"
O=C1CCC/C(=N\NC(=O)NC2CCCCC2)C1,–,"inconclusive: 39.8 µM [inhibitor, single point]"
Cc1cccc(/C=N/Nc2cc(N3CCOCC3)nc(N3CCOCC3)n2)c1,–,"inconclusive: 2 µM [inhibitor, partial curve]"
Cc1ccc(-c2csc(NC(=O)/C=C/c3ccco3)c2C(=O)O)cc1,–,"inconclusive: 31.6 µM [inhibitor, single point]"
O=C(c1cc2nc(-c3ccco3)cc(C(F)(F)F)n2n1)N1CCN(Cc2ccccc2)CC1,–,"inconclusive: 25.1 µM [inhibitor, partial curve]"
O=C(CNC(=O)/C(=C/c1ccccc1)NC(=O)c1ccc(Br)cc1)OCc1ccccc1,–,"inconclusive: 31.6 µM [inhibitor, single point]"
CC1=NN(C(=O)c2ccc(Br)cc2)C(O)(C(F)(F)OC(F)(F)F)C1 (stereo not given),–,"inconclusive: 28.2 µM [inhibitor, single point]"
